# Laboratory results from publication PMC4336329 (PLoS ONE, 2015).
# The campaign covered roughly 310,000 compounds. About 14,000 (4.5%) showed an effect of 50% or more. The effect is printed as a negative number. This is one part of the list.
# Target: human ether-à-go-go-related gene (hERG) potassium channel (human, UniProt Q12809)
# Experiment: primary screen, population patch clamp on CHO cells stably expressing hERG
# 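Further: peak tail current of the secondary pulse compared with the same well before compound.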
# human ether-à-go-go-related gene (hERG) potassium channel, sequence (Q12809 whole entry, looked up): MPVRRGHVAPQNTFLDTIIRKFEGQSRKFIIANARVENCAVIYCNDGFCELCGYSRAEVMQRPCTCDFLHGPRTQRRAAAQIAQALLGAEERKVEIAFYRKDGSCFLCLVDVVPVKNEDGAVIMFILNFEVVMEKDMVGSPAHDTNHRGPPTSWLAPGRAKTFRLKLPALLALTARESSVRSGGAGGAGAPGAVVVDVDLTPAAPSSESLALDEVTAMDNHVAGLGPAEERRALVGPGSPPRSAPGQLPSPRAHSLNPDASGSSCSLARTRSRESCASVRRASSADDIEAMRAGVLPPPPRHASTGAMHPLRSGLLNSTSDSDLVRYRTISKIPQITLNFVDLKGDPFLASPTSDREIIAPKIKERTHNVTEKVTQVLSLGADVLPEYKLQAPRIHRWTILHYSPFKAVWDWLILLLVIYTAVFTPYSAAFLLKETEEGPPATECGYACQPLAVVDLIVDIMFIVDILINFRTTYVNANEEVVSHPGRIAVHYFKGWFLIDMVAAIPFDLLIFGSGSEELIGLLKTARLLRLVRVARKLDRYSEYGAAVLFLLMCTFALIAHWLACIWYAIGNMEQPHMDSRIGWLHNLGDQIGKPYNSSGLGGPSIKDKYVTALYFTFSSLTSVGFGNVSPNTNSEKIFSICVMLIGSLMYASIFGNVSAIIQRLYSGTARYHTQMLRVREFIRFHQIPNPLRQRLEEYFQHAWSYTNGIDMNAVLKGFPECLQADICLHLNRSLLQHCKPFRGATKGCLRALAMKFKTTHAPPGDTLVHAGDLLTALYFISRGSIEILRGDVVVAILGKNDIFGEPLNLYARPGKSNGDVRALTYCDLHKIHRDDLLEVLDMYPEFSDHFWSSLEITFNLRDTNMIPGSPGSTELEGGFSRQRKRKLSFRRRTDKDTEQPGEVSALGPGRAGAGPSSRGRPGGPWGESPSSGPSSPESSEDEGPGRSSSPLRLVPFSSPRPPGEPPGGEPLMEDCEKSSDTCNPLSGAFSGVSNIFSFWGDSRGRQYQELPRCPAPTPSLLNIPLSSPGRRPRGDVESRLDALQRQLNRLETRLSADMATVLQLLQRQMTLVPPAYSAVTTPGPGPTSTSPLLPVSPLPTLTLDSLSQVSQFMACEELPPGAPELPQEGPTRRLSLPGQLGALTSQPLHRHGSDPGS
row,SMILES,"hERG current change (%, negative = inhibition) at 10uM"
1,CCC(=O)Nc1c2c(nn1-c1ccccc1C)CSC2,7.53%
2,COc1ccc(Nc2cc(C)nc3ccccc23)cc1.Cl,-36.5%
3,CC(C)Cn1c(SCC(=O)N2CCOCC2)nc2ccccc2c1=O,-5.9%
4,Cc1ccc(OCCCC(=O)Nc2ccc(N3CCOCC3)cc2)c(C)c1,8.49%
5,Cc1ccccc1C(=O)N(C)Cc1ccccc1,-2.82%
6,COc1ccccc1Nc1ncc(C(=O)N2CCN(Cc3ccc(OC)c(OC)c3OC)CC2)c2ccccc12,-27.7%
7,CCn1cc(/C=C/C(=O)Nc2c(C)nn(Cc3ccccc3)c2C)cn1,0.487%
8,CN(C)c1ccc(C2NCCS2)cc1 (stereo not drawn),14.9%
9,COc1ccc(-c2[nH]ncc2CNCCCSC)cc1F,-20.7%
10,CCOC(=O)C1=C(N)N2C(=O)C(C)SC2=C(C(=O)OC)C1c1cccc(OC)c1 (stereo not drawn),-2.26%
11,O=C1CCCN1CCCNS(=O)(=O)c1ccc(F)c(F)c1,-5.66%
12,O=C(N/N=C/c1c(O)n(Cc2ccc(F)cc2)c(=S)[nH]c1=O)c1ccncc1,6.35%
13,COC(=O)C1=C(c2c(C)noc2C)C[C@@H]2CC[C@H]1N2C(=O)NCCOc1ccc(OC)cc1,7.23%
14,COc1c(C)cccc1C(=O)Nc1ccc(CN2CCCCC2)cc1,-30.7%
15,CCCCn1c(N)c(N(CCOC)C(=O)CCNC(=O)c2ccc(Cl)cc2)c(=O)[nH]c1=O,8.33%
16,Cc1cc2ccccc2c(=O)[nH]1,16.5%
17,CCC(O)(CC)C(=O)N/N=C/c1cc(Br)cc(Br)c1O,-1.02%
18,COc1cc(C)nc(N2CCC(C(=O)NC3CCCCC3)CC2)n1,-3.08%
19,COc1ccc(/C=C/c2ccncc2)c2ccccc12,9.43%
20,O=C(c1cc(COc2ccc(F)cc2Cl)on1)N1CCC(OCc2cccnc2)CC1,-75.8%
21,CN(CCCN1CCOCC1)C(=O)c1cc(COc2c(F)cccc2F)on1,2.44%
22,COc1ccc(CNC(=O)C[C@H]2C(=O)N(c3ccccc3)C[C@@H]2Cc2ccccc2)cc1,-49.4%

row,SMILES,"hERG current change (%, negative = inhibition) at 10uM"
1,CCC(=O)Nc1cccc(-c2nc3ccccc3c(=O)o2)c1,13%
2,Cc1cc2[nH]c(=O)c(=O)[nH]c2cc1S(=O)(=O)NCc1ccc(Cl)cc1,-0.128%
3,O=C(CN1C(=O)/C(=C/c2ccccc2F)SC1=S)NC1C=CS(=O)(=O)C1 (stereo not drawn),11.9%
4,CC(C)OCCCn1c(=O)c2ccccc2n2c(CCC(=O)NCc3ccccn3)nnc12,-14.4%
5,CN(C)C(=O)CN(c1ccc(F)c(Cl)c1)S(C)(=O)=O,9.09%
6,Cc1cccc(CC(=O)Nc2ccc(C(=O)N3CCOCC3)cc2)c1,12.5%
7,CCOC(=O)c1ccc(NC(=O)CSc2nnc(CC)o2)cc1,0.222%
8,Cc1cc(NC(=O)CCC(=O)N(Cc2ccco2)C2(C(=O)NC3CCCC3)CCC(C)CC2)no1 (stereo not drawn),-4.65%
9,Br.CC12CN3CC(C)(CN(C1)C3c1cc3ccccc3[nH]1)C2=O (stereo not drawn),-2.36%
10,COc1ccccc1N1CCN(C(=O)C2=CC=CN3CCS(=O)(=O)N=C23)CC1,28.2%
11,O=C(Nc1ccc(C2=NCCN2)cc1)c1ccc(C(=O)Nc2ccc(C3=NCCN3)cc2)c([N+](=O)[O-])c1,20.1%
12,O=C(NC1CC1)C(=O)c1c[nH]c2ccccc12,18.2%
13,Cc1onc(-c2c(Cl)cccc2Cl)c1C(=O)NN1CCCCCC1,-7.15%
14,C#CCOCCOCCOCCNc1nc(N2CCN(C(=O)[C@H](CCC(=O)O)n3cc(C(N)CC(C)C)nn3)CC2)nc(N2CCN(C(=O)[C@H](Cc3cc4ccccc4[nH]3)n3cc(C(N)CC(C)C)nn3)CC2)n1.Cl (stereo partly drawn),9.13%
15,CCn1c(SCC(=O)N2CCCC2)nc2ccccc2c1=O,-23%
16,S=c1[nH]nc(COc2ccc3ccccc3c2)o1,20.4%
17,Cc1cc(C(=O)N2CCN(Cc3ccc4c(c3)OCO4)CC2)cs1,-43.2%
18,Cc1ccc(C(=O)Nc2nc3ccc(S(C)(=O)=O)cc3s2)o1,-0.566%
19,Cc1noc(C)c1COc1ccccc1C(=O)N(C)Cc1ccc(C(C)(C)C)cc1,-27.4%
20,Cc1cccc(NC(=O)c2cc(S(=O)(=O)N3CCC4(CC3)OCCO4)ccc2F)c1,-22%
21,O=C(COC(=O)c1ccc(O)cc1O)Nc1nnc(-c2ccccc2)o1,15.4%
22,Cc1ccc2nc(NCCC(=O)O)nc(-c3ccccc3)c2c1,3.76%

row,SMILES,"hERG current change (%, negative = inhibition) at 10uM"
1,COc1ccc(CN2CCCC(N3CCN(c4cccc(Cl)c4)CC3)C2)cc1OC (stereo not drawn),-54.1%
2,O=C(CSc1nnnn1-c1ccccc1Cl)Nc1ccc2c(c1)OCCO2,15%
3,CCn1c(=O)oc2cc(NC(=O)CCl)ccc21,35.1%
4,Cc1nnc2sc(SCC(=O)Nc3cccc(Cl)c3)nn2c1=O,-47.5%
5,Cc1cccc(C)c1NC(=O)CSc1ncnc2nc[nH]c12,-0.01%
6,COC(=O)CSc1nc2ccccc2c(=O)n1C,5.6%
7,O=C(Cc1coc2ccc3ccccc3c12)Nc1nccs1,1.87%
8,CNC(=O)c1ccc(C)c(NC(=O)C2=C(C)OCCS2)c1,-14.8%
9,COc1cc(-c2nnc3sc(-c4ccncc4)nn23)cc(OC)c1OC,-8.25%
10,COc1cc(/C=C/C(=O)OCC(=O)c2c(N)n(C)c(=O)n(C)c2=O)ccc1O,17.6%
11,O=C(COc1ccccc1)NC1CCCCC1,2.93%
12,Fc1ccc(N2CCN(c3ncnc4nc[nH]c34)CC2)cc1,-7.41%
13,Nc1ccccc1C(=O)OCCOc1ccccc1,4.28%
14,COCCn1c(=N)c(S(=O)(=O)c2ccc(F)cc2)cc2c(=O)n3cccc(C)c3nc21,-22.5%
15,CCN(CC)CCCn1c(C)cc2c(c1=O)C(c1ccccc1)C(C#N)=C(N)O2 (stereo not drawn),-17%
16,COc1cccc(C(=O)NCCS(=O)(=O)NC(C)CCc2ccccc2)c1 (stereo not drawn),-43.8%
17,COc1ccccc1C(=O)COC(=O)c1cc([N+](=O)[O-])ccc1N1CCOCC1,-13.3%
18,CCOC(=O)CSc1nc2c(c(=O)[nH]c(=O)n2C)n1CCCc1ccccc1,-19.6%
19,Cc1ccc(S(=O)(=O)N(C(=N)N)c2nc(N(C)C)nc(N(C)C)n2)cc1,4.96%
20,CC(C)CCNC(=O)c1ccc2nc[nH]c2c1,-0.442%
21,CCOc1ccc(C(=O)NC(=S)Nc2ccc(NC(=O)c3ccco3)cc2)cc1[N+](=O)[O-],9.8%
22,COc1ccc(C2CC(C(F)(F)F)n3nc(C(=O)O)c(Cl)c3N2)cc1OC (stereo not drawn),7.59%

row,SMILES,"hERG current change (%, negative = inhibition) at 10uM"
1,COc1ccc(/C=N/NC(=O)c2cccnc2)cc1CN1CCN(c2ccc(F)cc2)CC1,-51%
2,COc1ccc2nc(C)cc(SCC(=O)NNC(=O)COc3ccccc3)c2c1,17.9%
3,O=C(CCCSc1nc2ccccc2[nH]1)Nc1ccccc1,7.05%
4,CCCN1C(=O)/C(=C\c2ccncc2)SC1=Nc1ccccc1,-14.5%
5,COc1cc(C2Nc3cc(Cl)c(S(N)(=O)=O)cc3S(=O)(=O)N2)cc(OC)c1OC (stereo not drawn),-12.9%
6,Cc1[nH][nH]c(=O)c1C(c1ccc([N+](=O)[O-])cc1)c1c(C)[nH][nH]c1=O,23.9%
7,CCCCCN(C(=O)CCC(=O)OCC(=O)c1ccc(CCC)cc1)c1c(N)n(CCCC)c(=O)[nH]c1=O,-61.5%
8,Cc1ccc(S(=O)(=O)CCC(=O)Nc2nc(C(C)(C)C)cs2)cc1,-12.1%
9,Cc1cccc(-n2cnc3c(sc4nc(N5CCOCC5)c5c(c43)CCCC5)c2=O)c1,12.5%
10,O=C(NCCCCCCNC(=O)N1CCCCCC1)N1CCCCCC1,-10.2%
11,COC(=O)c1nn(C23CC4CC(CC(C4)C2)C3)c2c1C(=O)N(c1ccc(Br)cc1)C2=O,4.07%
12,CCc1cccc(NC(=O)c2cc(OC)c(OC)c(OC)c2)c1,-15.1%
13,COc1nc(C)nc2c1sc(=S)n2C,3.04%
14,Cc1csc(NC(=O)[C@@H]2CCCN2C(=O)c2cccs2)n1,22.7%
15,CCCCN(C)CC(O)Cn1cc(/C=C/C(=O)c2ccc(OCC)cc2)c2ccccc21 (stereo not drawn),-20.5%
16,O=C(COC(=O)CCC(=O)c1cccs1)Nc1ccc(S(=O)(=O)N2CCOCC2)cc1,-21.3%
17,Cc1ccccc1-c1ccccc1N,-5.71%
18,O=C(CCC1N=C2c3ccccc3N=C(SCC(=O)NCc3ccco3)N2C1=O)NCc1ccco1 (stereo not drawn),12.7%
19,O=S(Cc1ccc(Cl)cc1)c1ncc(CO)n1Cc1ccccc1 (stereo not drawn),-3.62%
20,CCNc1nc(NCC)nc(N/N=C(\C)c2ccc(OC)cc2)n1,-14.1%
21,Cc1cc(C)nc(SCc2nnc(SCC(=O)N3CCCc4ccccc43)o2)n1,-20.2%
